# Data from PubChem BioAssay AID485281 (National Center for Advancing Translational Sciences (NCATS), 2010).
# The campaign covered roughly 350,000 compounds. About 260 (0.074%) were called active. This list was built around the results that the source calls inconclusive (neither active nor inactive); the mix of calls is not that of the screen. Calls follow the shape of the dose curve; as a rule, active = well fitted inhibition curve with a large enough effect; inconclusive = small, poorly fitted or top-dose-only effect; inactive = no such curve, though single readings can be large or run the other way. Potencies of inconclusive entries are doubtful fits and often do not repeat.
# Biological target: Ferritin light chain (Equus caballus) (UniProt P02791)
# Experiment: qHTS Assay for Identification of Novel General Anesthetics; also: nearly all actives have a fitted effect of over 20% in size
# Settings: apoferritin/1-aminoanthracene competitive binding, fluorescence; series mostly up to 77.5 µM
# Summary of the method: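 Apoferritin-based anesthetic binding model; compound displacement of fluorescent 1-AMA measured as endpoint fluorescence after 10 minutes at room temperature, scaled to free-ligand and complex controls.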
# Potency is read from the fitted curve at half-maximal effect; tags tell the direction and shape of the fitted curve.
# Sequence of UniProt P02791 (P02791 whole entry, looked up): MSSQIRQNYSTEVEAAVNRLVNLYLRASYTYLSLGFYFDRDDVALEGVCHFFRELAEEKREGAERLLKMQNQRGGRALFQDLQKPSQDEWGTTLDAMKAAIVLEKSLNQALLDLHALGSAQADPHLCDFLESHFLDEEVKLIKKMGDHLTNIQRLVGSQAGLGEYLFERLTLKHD
row,SMILES,Potency
1,O=C(/C=C/c1ccc(-c2ccccc2[N+](=O)[O-])o1)c1ccccc1,"inconclusive: 31.6 µM [inhibitor, partial curve]"
2,COc1cccc(C(=O)NC23CC4CC(CC(C4)C2)C3)c1,"inconclusive: 25.1 µM [inhibitor, partial curve]"
3,O=C(Cc1ccc(Br)cc1)Nc1ncc([N+](=O)[O-])s1,inactive
4,CCCn1c(SCC(=O)Nc2ccc(S(=O)(=O)N(C)C)cc2)n[nH]c1=O,"inconclusive: 0.0794 µM [inhibitor, full curve, poor fit]"
5,CCCOc1ccc(C(=O)c2nc3c(n2O)CCCCC3)cc1,"inconclusive: 50.1 µM [inhibitor, single point]"
6,COc1ccc2cc(Br)ccc2c1CC(=O)N(C)C,inactive
7,Cc1ccc(N2C(=O)[C@@H]3CSC(c4ccc(F)cc4)N3C2=O)cc1 (stereo not given in full),inactive
8,COc1ccccc1CC(=O)NNS(=O)(=O)c1ccccc1[N+](=O)[O-],"inconclusive: 28.2 µM [inhibitor, partial curve]"
9,CCC(=O)Nc1c(C(=O)N2CCN(c3ccccn3)CC2)cnn1-c1ccc(C)cc1,inactive
10,c1ccc(Oc2cnc3ccccc3n2)cc1,"inconclusive: 39.8 µM [inhibitor, partial curve]"
11,CCn1c(CNc2ccccc2Cl)nnc1SCC(=O)OC1CCCCC1,"inconclusive: 39.8 µM [inhibitor, partial curve]"
12,Clc1ccc(OCc2nnc(SCc3nc4ccccc4[nH]3)n2Cc2ccco2)cc1,"inconclusive: 20 µM [inhibitor, partial curve]"
13,O=c1c2c(-c3cccs3)csc2ncn1-c1ccccc1,"inconclusive: 56.2 µM [inhibitor, single point]"
14,CC(C)CCC(CCNCc1ccccn1)c1ccc(Cl)cc1 (stereo not given),inactive
15,COc1ccc2cc(-c3ccon3)ccc2c1,inactive
16,CC(C)(C)c1ccc(C(=O)c2c[nH]c(C(=O)NCc3cccnc3)c2)cc1,"inconclusive: 22.4 µM [inhibitor, partial curve]"
17,Cc1cc(/C=N/NC(=O)c2ccncc2)c(C)n1-c1cccc(C(F)(F)F)c1,"inconclusive: 39.8 µM [inhibitor, partial curve]"
18,CCc1cccc(NC2c3ccccc3C(=O)N2c2ccc(C)cn2)c1 (stereo not given),"inconclusive: 22.4 µM [inhibitor, partial curve]"
19,O=C(Cn1nc(-c2ccco2)ccc1=O)Nc1ccc(Cl)c(Cl)c1,"inconclusive: 35.5 µM [inhibitor, single point]"
20,N#Cc1c(Sc2ncc(C(F)(F)F)cc2Cl)nsc1C/C=N\OCc1ccccc1Br,active: 14.1 µM
21,COc1cccc(CNC(=O)CSc2c3c(nc4cc(Cl)ccc24)CCCC3)c1,"inconclusive: 11.2 µM [inhibitor, partial curve]"
22,COc1ccc2[nH]c(=O)c(CN(CCc3ccccc3)Cc3nnnn3CC3CCCO3)cc2c1 (stereo not given),inactive
23,N#C/C(=C\c1ccc[nH]1)Sc1nc2ccccc2s1,"inconclusive: 17.8 µM [inhibitor, partial curve]"

row,SMILES,Potency
1,COc1ccccc1[C@H]1C(c2ccc(F)cc2)=NN(c2ccccc2)[C@@H]1CO,inactive
2,COC(=O)c1nn(-c2ccccc2)c(Sc2ccc(C)cc2)c1/C=N/O,"inconclusive: 15.8 µM [inhibitor, partial curve]"
3,NNC(=O)c1cc2cc(OC(F)(F)F)ccc2[nH]1,"inconclusive: 31.6 µM [inhibitor, single point]"
4,CN(c1ccccc1)S(=O)(=O)c1nnc(NC(=O)c2ccccc2)s1,inactive
5,Cc1ccc(NC(=S)Nc2cccc3cnccc23)cc1C,"inconclusive: 22.4 µM [inhibitor, single point]"
6,NCCCCCc1nnc(SCc2ccc(Cl)c(Cl)c2)o1,"inconclusive: 28.2 µM [inhibitor, partial curve]"
7,CC(=O)Oc1ccc(C)cc1-n1nc2ccccc2n1,"inconclusive: 22.4 µM [inhibitor, partial curve]"
8,O=C1c2ccccc2S(=O)(=O)N1Cc1nc2ccccc2s1,"inconclusive: 25.1 µM [inhibitor, partial curve]"
9,CN1CCc2nc(NC(=O)COc3ccc4ccccc4c3)sc2C1,"inconclusive: 22.4 µM [inhibitor, partial curve]"
10,COc1cc(/C=C2\SC(=S)N(N3CCOCC3)C2=O)cc(OC)c1OC,"inconclusive: 11.2 µM [inhibitor, single point]"
11,O=S(=O)(O)c1ccc2c(c1)-c1nc-2nc2[nH]c(nc3nc(nc4[nH]c(n1)c1ccc(S(=O)(=O)O)cc41)-c1ccc(S(=O)(=O)O)cc1-3)c1ccc(S(=O)(=O)O)cc21,"inconclusive: 35.5 µM [inhibitor, single point]"
12,Cc1ccc(S(=O)(=O)N2CCCCC2)cc1NC(=O)Cn1cnnn1,inactive
13,C=C(C)CSc1nc(N)cc(=O)[nH]1,"inconclusive: 50.1 µM [inhibitor, single point]"
14,CCSc1nnc2ccc(-c3ccc(C)cc3)nn12,"inconclusive: 22.4 µM [inhibitor, partial curve]"
15,Nc1nc(N)c2nc(-c3ccccc3)c(N)nc2n1,inactive
16,Cc1ccc(-c2cc(C(=O)Nc3cc(C)on3)c3ccccc3n2)cc1,inactive
17,Cc1[nH]n(-c2ncc(-c3ccccc3)s2)c(=O)c1C(c1ccc(Cl)cc1)C(C#N)C#N (stereo not given),inactive
18,Cc1[nH]n(-c2ccccc2)c(=S)c1C=Nc1cccc([N+](=O)[O-])c1,"inconclusive: 25.1 µM [inhibitor, partial curve]"
19,O=C(OCc1csc(-c2ccccc2)n1)c1cccs1,"inconclusive: 39.8 µM [inhibitor, single point]"
20,O=C(Cn1nc(-c2cccc([N+](=O)[O-])c2)c2ccccc2c1=O)NCC1CCCO1 (stereo not given),"inconclusive: 31.6 µM [inhibitor, partial curve]"
21,Cc1ccc(OCC(=O)Nc2ccc3c(c2)nc(CCNC(=O)c2ccco2)n3C)cc1,"inconclusive: 20 µM [inhibitor, partial curve]"
22,CC1CN(C(=O)CCC(=O)NCc2ccc(Cl)cc2)c2ccccc2S1 (stereo not given),"inconclusive: 22.4 µM [inhibitor, partial curve]"
